In PubChem BioAssay AID624171 (National Center for Advancing Translational Sciences (NCATS), 2012):
Hit rate of the full screen: of about 410,000 compounds, about 1,200 (0.29%) were called active. Inconclusive means that the source gave no clear call. Such entries were picked first, then a sample of the others. Calls follow the shape of the dose curve; as a rule, active = well fitted activation curve with a large enough effect; inconclusive = small, poorly fitted or top-dose-only effect; inactive = flat fitted curve, though single readings scatter. Potencies beside an inconclusive call are fits to weak or partial responses and may not hold up.
Potency is read from the fitted curve at half-maximal effect; tags tell the direction and shape of the fitted curve.

Experiment: qHTS of Nrf2 Activators; also: nearly all actives have a fitted effect of over 65% in size
Conditions: AREc32 ARE-luciferase reporter (MCF7-derived line), luminescence, 24 h; series mostly up to 46.1 µM
Procedure, shortened: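 Steps: seed AREc32_Fluc cells (1000/well, 5% FBS OPTI-MEM); incubate overnight at 37 deg C; add 23 nL compound; incubate 24 hr; add Steady-Glo; hold 30 min RT; read luminescence.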
With `CCOC(=O)C1=C(C)OC(N)=C(C#N)C1c1cc2c(cc1[N+](=O)[O-])OCO2` (stereo unspecified) the Potency was inconclusive: 25.1 µM [activator, single point]. For `COc1ccc(OC)c(/C=C/C(=O)c2ccc(Cl)cc2)c1`, the Potency was inconclusive: 35.5 µM [activator, single point]. For `CC(=O)c1sc2nc(-c3ccco3)ccc2c1N`, the Potency was inconclusive: 2.24 µM [activator, partial curve, poor fit]. With `O=C(Nc1nnc(-c2ccccc2)s1)c1ccccc1F` the Potency was inconclusive: 12.6 µM [activator, partial curve, poor fit]. For `O=C1/C(=C\c2ccc(O)cc2)CCC1CNc1ccc(Cl)cc1` (stereo unspecified), the Potency was active: 11.2 µM. With `COC(=O)c1ccsc1NC(=O)c1cccc(OC)c1` the Potency was inconclusive: 11.2 µM [activator, partial curve, poor fit]. With `Clc1nccnc1N/N=C/c1ccc(Br)cc1` the Potency was inconclusive: 11.2 µM [activator, single point]. With `COc1ccc(Cl)cc1C(=O)NNC(=S)NC(=O)/C=C/c1ccco1` the Potency was inconclusive: 28.2 µM [activator, partial curve, poor fit]. With `Clc1ccccc1/C=C/c1ccnc2ccccc12` the Potency was inconclusive: 22.4 µM [activator, partial curve, poor fit]. For `Cc1cc(C)c2c(c1)-c1cc(C)nn1C(c1ccc3c(c1)OCO3)N2` (stereo unspecified), the Potency was “inactive”. In the case of `COc1nc(OC)nc(Oc2ccc(Cl)cc2[N+](=O)[O-])n1`, the Potency is reported as “inactive”. In the case of `O=C(/C=C/c1ccc(N2CCCCC2)c([N+](=O)[O-])c1)c1ccc(O)cc1`, the Potency is reported as inconclusive: 7.94 µM [activator, partial curve]. In the case of `O=C(NC(=S)Nc1cccc2cccnc12)c1ccccc1`, the Potency is reported as active: 4.47 µM. For `Cc1ccc(NC(=O)c2cccc(C(F)(F)F)c2)cc1NC(=O)c1[nH]cnc1C(N)=O`, the Potency was inconclusive: 12.6 µM [activator, partial curve, poor fit]. In the case of `O=C(COc1ccccc1F)Nc1ccccc1OCc1cc(=O)n2ccccc2n1`, the Potency is reported as “inactive”. In the case of `COc1cccc(-c2cnc3c(NC(C)=O)cc(-c4cccc(C(=O)NCCN(C)C)c4)cn23)c1`, the Potency is reported as inconclusive: 12.6 µM [activator, partial curve, poor fit]. For `Cc1cccc(NC(=O)C2CCN(S(=O)(=O)c3cccc4nsnc34)CC2)c1`, the Potency was “inactive”. With `COCC(C)n1c(SCc2nc3ccccc3c(=O)[nH]2)nc2ccccc2c1=O` (stereo unspecified) the Potency was “inactive”. In the case of `O=C(/C(C=Nc1ccc(Br)cc1)=C(/O)c1ccco1)C(F)(F)F`, the Potency is reported as “inactive”. With `O=C(Nc1ccccc1N1CCCC1)c1ccc([N+](=O)[O-])o1` the Potency was inconclusive: 4.47 µM [activator, single point]. For `CN1C/C(=C/c2cccnc2)C(=O)/C(=C/c2cccnc2)C1`, the Potency was inconclusive: 3.55 µM [activator, partial curve, poor fit]. For `Cc1ccc(C(=O)NC2CC3CCCC(C2)N3Cc2ccccc2)cc1` (stereo unspecified), the Potency was “inactive”. For `CC1=NN(C(N)=S)C(=O)C1N=Nc1ccccc1O` (stereo unspecified), the Potency was inconclusive: 28.2 µM [activator, single point]. For `Cn1c(N)c(C(=O)COC(=O)c2cccnc2Cl)c(=O)n(C)c1=O`, the Potency was “inactive”. For `O=C(Nc1ccc(OC(F)(F)F)cc1)C1CCCN(S(=O)(=O)c2cccc3nonc23)C1` (stereo unspecified), the Potency was “inactive”. For `CC(CCCC(C)(C)O)NC(=O)c1cc(COc2ccc3ncccc3c2)on1` (stereo unspecified), the Potency was “inactive”. For `CSc1nc(-c2ccco2)cc(-c2ccccc2)c1C#N`, the Potency was “inactive”. With `CC1CC1c1ccc(/C=C(\C#N)C(=O)Nc2cccc(Cl)c2Cl)o1` (stereo unspecified) the Potency was inconclusive: 3.55 µM [activator, single point]. For `O=C(Nc1ccc([N+](=O)[O-])cc1)c1cc(Cl)sc1Cl`, the Potency was inconclusive: 11.2 µM [activator, partial curve, poor fit]. With `O=c1oc(-c2ccccc2)nc2c1cnn2-c1ccccc1` the Potency was “inactive”. In the case of `COc1cccc(/C=C/C(=O)N2CC(C)OC(C)C2)c1OC` (stereo unspecified), the Potency is reported as inconclusive: 15.8 µM [activator, partial curve, poor fit]. In the case of `O=C1CN(c2nc(-c3cccs3)nc3sc4c(c23)CCCC4)CCN1`, the Potency is reported as “inactive”. For `COc1ccc(-c2csc(N(C)C(=O)c3cccs3)n2)cc1`, the Potency was “inactive”. For `O=C(CSc1nccc(-c2cccs2)n1)Nc1ccc(F)c(Cl)c1`, the Potency was active: 7.94 µM. In the case of `O=C(COC(=O)c1cc(-c2ccc(Cl)s2)nc2ccccc12)NCc1ccco1`, the Potency is reported as inconclusive: 22.4 µM [activator, single point]. For `Cc1ccccc1-c1nnc(-c2ccccc2)o1`, the Potency was inconclusive: 8.91 µM [activator, partial curve]. For `COc1ccc(Br)cc1-c1noc(-c2ccccc2)n1`, the Potency was inconclusive: 2.24 µM [activator, partial curve, poor fit]. For `CCCN(c1ccc(C(C)C)cc1)S(=O)(=O)c1ccc2c(c1)oc(=O)n2CC(=O)OCC`, the Potency was “inactive”. With `CCOC(=O)c1ccc(N=c2sc(C(=O)OC)cc(=O)n2Cc2ccco2)cc1` the Potency was “inactive”. With `Cc1noc2ncnc(Sc3ccc(Cl)cc3)c12` the Potency was inconclusive: 17.8 µM [activator, single point]. In the case of `O=C(NN1C(=O)/C(=C/C=C/c2ccco2)SC1=S)c1ccccc1O`, the Potency is reported as inconclusive: 15.8 µM [activator, single point]. In the case of `O=C(O)CCCCCN1C(=O)/C(=C/c2ccncc2)SC1=S`, the Potency is reported as inconclusive: 10 µM [activator, partial curve]. In the case of `Cn1c(O)c(N=NC(=O)C2COc3ccccc3O2)c2ccccc21` (stereo unspecified), the Potency is reported as inconclusive: 12.6 µM [activator, partial curve, poor fit]. For `COc1cc2sc3cc(NCc4ccc(C)o4)ccc3c(=O)c2cc1OC`, the Potency was inconclusive: 12.6 µM [activator, partial curve, poor fit]. With `O=C(NC(=S)Nc1nc2ccc(F)cc2s1)c1ccco1` the Potency was inconclusive: 2 µM [activator, full curve, poor fit]. With `Cc1ccc2oc(=O)c(/C=C(\O)c3ccccc3)nc2c1` the Potency was active: 14.1 µM.
